# Reference: PMC4242493
# This is one part of the list. The list includes weakly bound sequences.
# Target: MaxL homodimer (UniProt P61244)
# Test: universal protein-binding microarray (PBM)
# Settings: PBS-based mixture, 10 nM His-tagged protein dimer, 2% milk, 200 ng/uL BSA, 50 ng/uL salmon testes DNA, 0.02% TX-100; detection with Alexa 488 anti-His …; high values mean tight binding; most listed sequences are background and not binding sites; double strand, one strand shown
# UniProt P61244, sequence (P61244 whole entry): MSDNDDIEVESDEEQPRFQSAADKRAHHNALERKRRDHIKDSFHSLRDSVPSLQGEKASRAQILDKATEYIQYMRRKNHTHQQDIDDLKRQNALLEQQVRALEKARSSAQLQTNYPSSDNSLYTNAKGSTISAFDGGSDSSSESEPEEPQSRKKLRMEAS
row,Sequence,binding signal (normalized occupancy)
1,AACTAGCA,0.0748
2,AGTCTATG,0.0714
3,GGCCGCCA,0.0741
4,GGGATTCA,0.0764
5,CCAACACA,0.0797
6,GTGGATGA,0.0862
7,ATAGGAGG,0.0826
8,GACACGTA,0.0792
9,CGTAAAGC,0.0697
10,CGTTGCTC,0.0718
11,ATTGGAAA,0.0724
12,CTAGATCC,0.0812
13,ATCGATTC,0.0767
14,AAGGAAGA,0.0722
15,CTTGTTCC,0.0733
16,CTTATGTA,0.0786
17,GGGTTGCA,0.0752
18,AATCGCTG,0.0721
19,TGCATCCA,0.0906
20,CTTTCAGC,0.0711
21,CAGTGAAC,0.08
22,AGTGACCC,0.0751
23,ACTAGCAG,0.0664
24,GCTGTAAC,0.0745
25,AGTGTGAA,0.0757

row,Sequence,binding signal (normalized occupancy)
1,CCGTGGCA,0.077
2,AGTGTGAC,0.089
3,ATGTTGAA,0.0794
4,AGAAGAAT,0.0735
5,CGGCTACC,0.0633
6,CTGAATGC,0.073
7,GCTACGAC,0.078
8,CAGCTTAC,0.0732
9,CCAAGGTC,0.0691
10,CCATGGGG,0.0949
11,ACTTTCTC,0.0765
12,ACGGTTTC,0.0746
13,CACCGGCA,0.0736
14,ACTGATTG,0.0757
15,TAGACCAA,0.0741
16,CAGAGTAC,0.0685
17,TTTCGAAA,0.0664
18,ATGTTGCA,0.0888
19,ACTGCATC,0.0762
20,CTGATTGC,0.0801
21,AGCTAAAC,0.0677
22,ACATCGAA,0.0799
23,GGAGTTTA,0.0748
24,CTCCATGA,0.0798
25,CCTCGGTC,0.0723

row,Sequence,binding signal (normalized occupancy)
1,ACAATGAG,0.0811
2,GGATGACA,0.0813
3,ACTCCTCA,0.0762
4,CCACGGCC,0.0722
5,CTCTAGAG,0.068
6,GCTCTTGA,0.072
7,CACCGCGA,0.0739
8,TAGAAAGA,0.0725
9,CCTATTAC,0.0809
10,ATACCCCA,0.0851
11,TCAGGAGA,0.0762
12,GACCGCGA,0.071
13,CCATTGTC,0.0734
14,GATGTGAA,0.0819
15,CACTTCTG,0.0775
16,CTCTTCCC,0.0807
17,CACATTCC,0.0845
18,TGGACCAA,0.076
19,TCCCAACA,0.0757
20,ATCGCCTG,0.0729
21,GCGTTCTA,0.0752
22,AGACAAGA,0.076
23,AGCCGGCG,0.0676
24,GCAGAAAA,0.073
25,AAAACGTG,0.122

row,Sequence,binding signal (normalized occupancy)
1,ACCCTACT,0.079
2,ACACTTCC,0.0765
3,CAAACCCA,0.0843
4,AGGCGGGC,0.0725
5,AACTAGTA,0.0766
6,CACAGTCC,0.0729
7,AAAGCGAG,0.0681
8,CGGGTTTA,0.0753
9,AATCGAAC,0.0797
10,CATTGGAA,0.0787
11,GCGGTACA,0.0733
12,ACGCTTCA,0.0799
13,CGTCTAAC,0.0695
14,AATGGACA,0.0787
15,ACATCCAC,0.0907
16,GCATTGGA,0.0838
17,AGAATTGG,0.0713
18,CGGCTCGC,0.0654
19,CGTCACCA,0.0731
20,GCGCCGAC,0.0666
21,CGAGATAC,0.0772
22,AAAGAGCT,0.0673
23,CACCCAGA,0.0683
24,CTAAACTC,0.0725
25,TAAGCTCA,0.0758

row,Sequence,binding signal (normalized occupancy)
1,CAAACACA,0.0888
2,AATATAAA,0.0774
3,GATAAGAA,0.0735
4,AGTGTCGC,0.0694
5,AGACTTTC,0.0728
6,CGTCTCGC,0.0696
7,ATGCCGGG,0.0708
8,CTCACCAA,0.076
9,TCGATGCA,0.0793
10,CGAATTGA,0.0709
11,ACCAGTTG,0.0731
12,ACGGGCGA,0.0685
13,AAAGCCAC,0.0794
14,AGGCCCGA,0.0666
15,CACCCGGG,0.0702
16,CCCACGTA,0.0823
17,AACTTTCT,0.0728
18,AGTACTCG,0.0711
19,GGCAGACC,0.0717
20,GCGCAACC,0.0764
21,CCGACTAC,0.0708
22,CGGTCCCA,0.0694
23,ACGCCTAT,0.0801
24,AATGTGGC,0.0898
25,CTGGTTGC,0.071

row,Sequence,binding signal (normalized occupancy)
1,CATTAGAG,0.0766
2,CACAAAGA,0.0729
3,AAGGTTAC,0.0726
4,AGCAATCG,0.0715
5,CCTACTGA,0.0734
6,ATATATAG,0.0861
7,GAACCGTA,0.0741
8,CCCGTTGA,0.0706
9,AATGGTCA,0.0816
10,CCTGGACG,0.0787
11,GTTTCCTA,0.0787
12,CCGTGCAA,0.078
13,CTTATCCA,0.0789
14,GCGCACAA,0.0724
15,ATTCTATC,0.0792
16,AGAAGAAG,0.0699
17,GAATCAAC,0.0782
18,AGTAGACA,0.0752
19,AACTCCCT,0.0751
20,AAAGGGGG,0.0759
21,CTTGGTGC,0.0767
22,GCGACACC,0.071
23,GGTTCAGA,0.0752
24,AGGATTGA,0.0743
25,CTCCAGTC,0.0721

row,Sequence,binding signal (normalized occupancy)
1,GTGAGATA,0.0858
2,AACATTAT,0.0851
3,ACGGTTAC,0.0714
4,AACAGTCC,0.072
5,AAGACCCT,0.07
6,ACCCATTA,0.0779
7,AGAAGGTA,0.0772
8,GAATAGAA,0.0754
9,AAGAACCT,0.0744
10,AGATATTC,0.0788
11,CGTTTCGA,0.0673
12,ATTGCAAC,0.0742
13,AGACGAAA,0.0748
14,CTCTAGGA,0.0722
15,CGCCACCC,0.0855
16,CCCGTTTC,0.0701
17,GACGGGTA,0.0755
18,CCGAAGGC,0.0646
19,CGCGTCCA,0.072
20,ATACTACG,0.0766
21,GACAGCAA,0.0729
22,AATGCCGG,0.068
23,GGACGGAA,0.0748
24,CCGGAAGA,0.069
25,AGTTGCCG,0.0725

row,Sequence,binding signal (normalized occupancy)
1,ACATACCG,0.0771
2,GTTTTGGA,0.0787
3,ACCCAGGC,0.069
4,GCCTCACA,0.0782
5,CTCCAGTA,0.0743
6,AGAATAAG,0.0779
7,AAGTGCGC,0.0714
8,ATTCTTCA,0.0741
9,AAGGACGT,0.0736
10,CAGTATTC,0.0769
11,GAATGAGA,0.0744
12,CACGTGAA,0.231
13,GGTAGCAA,0.0775
14,ATACGGTA,0.0762
15,ACAGCACA,0.0828
16,AGGCGCGC,0.0762
17,ACGAACAA,0.075
18,ACGATTAG,0.0719
19,CCGCGCGG,0.0872
20,ACCCAAAA,0.0704
21,CCATGCTA,0.0945
22,AACGACAT,0.08
23,GAAACTTA,0.0725
24,CGCAAGTC,0.0757
25,TTACCTAA,0.0795

row,Sequence,binding signal (normalized occupancy)
1,AGCCAGCT,0.0716
2,AATTCTTG,0.0737
3,CACTTTGG,0.0692
4,ACAATAGT,0.0756
5,AGACCGCT,0.0688
6,GATTTACA,0.0751
7,CACATTTC,0.0859
8,TATCGGAA,0.0713
9,GTTCAGCA,0.0774
10,CCCACCCA,0.0925
11,CTCAAACC,0.0697
12,AAGTGCCT,0.0697
13,CATACGCG,0.0762
14,AGTTGAAA,0.0727
15,CATCCGAG,0.075
16,AGCCGCGC,0.0718
17,AAGACAGC,0.0706
18,CATAGCCA,0.0772
19,GGTCATCA,0.0816
20,CGGTGTCC,0.0657
21,CTTACCGA,0.0699
22,TATAACGA,0.0877
23,GAATCTCA,0.0722
24,CCCCCGCG,0.0757
25,TAGATCGA,0.0715

row,Sequence,binding signal (normalized occupancy)
1,CGTCAGCC,0.0718
2,AGCATGAT,0.107
3,AGGGCTGG,0.0696
4,CTCGATGC,0.0799
5,GATATTCC,0.0765
6,GCAGGTCA,0.0727
7,GCTTGCCA,0.073
8,CCGCGCGA,0.0729
9,GTCGTCGA,0.0712
10,TACTACTA,0.0799
11,CCTGAAGC,0.0737
12,GTTTGGCA,0.0715
13,ATCCAAAG,0.0737
14,CCACAAAC,0.0719
15,GCATACCA,0.0835
16,CTTCGCGA,0.0686
17,ATGGACAC,0.0819
18,GCACCGAA,0.0732
19,ACCAAGGG,0.0735
20,ATGACACG,0.0936
21,CCACTGGA,0.0734
22,TCCCTGAA,0.0722
23,TAGAACGA,0.0797
24,AGCTTTTC,0.0666
25,GACAACAA,0.0712

row,Sequence,binding signal (normalized occupancy)
1,CGTTTACC,0.0763
2,GTTGTTGA,0.0769
3,AAAGTCGT,0.0747
4,CGGCTAAC,0.0721
5,AGGATAAT,0.0834
6,GGCGAGTA,0.075
7,CCACCGCA,0.0786
8,AAAGTTAG,0.0752
9,GATGCAGC,0.0712
10,ACAAATCC,0.0777
11,CGTGATAG,0.0851
12,ATGTAAAA,0.084
13,ACGTCCTA,0.0771
14,CACACAAG,0.0774
15,GAATCACC,0.0755
16,ACCAGCTA,0.072
17,TCTGTAAA,0.085
18,ATATACGA,0.0856
19,ACAGGATG,0.0777
20,CTGGGGGA,0.0753
21,GAATAATA,0.0768
22,GGGATTGA,0.0725
23,GATTAAGA,0.0776
24,CGGCGCTC,0.0662
25,ATCTTGTG,0.0791

row,Sequence,binding signal (normalized occupancy)
1,AGGAGGCG,0.074
2,GACTGATC,0.0781
3,AAGTAGCG,0.0711
4,CACGTAAA,0.0805
5,CTATCCCA,0.0839
6,TACCTAAA,0.0813
7,AGGCGATG,0.0735
8,GAGCCCGC,0.0735
9,CATGGACA,0.0901
10,GACACGCA,0.0852
11,ATGGCTGC,0.0809
12,GTGCGACA,0.0807
13,CTCGTATA,0.081
14,GATTGAGC,0.0709
15,CTGACATA,0.0799
16,CATTACTA,0.0827
17,TAGCTTAA,0.0705
18,GCTGTACC,0.0765
19,AGACACAC,0.0877
20,TAACGTTA,0.0831
21,CATAGGCG,0.0751
22,TCCATGAA,0.0812
23,AGTGGCAC,0.0792
24,ACAACCAG,0.0757
25,ATGCAAGG,0.0775

row,Sequence,binding signal (normalized occupancy)
1,GCGCAAGC,0.067
2,GAGTGCCC,0.073
3,CGTGAACC,0.0826
4,ACGTACAC,0.0898
5,CCGCTTCC,0.0681
6,AATTTTAA,0.0705
7,CAAGTGGG,0.0807
8,CCCATTAG,0.0712
9,GTCCAAAA,0.0756
10,ACCCGGTC,0.0691
11,CGATAATA,0.0797
12,ACTGGATA,0.0777
13,CATGCGGC,0.121
14,GTCTCATA,0.0789
15,ATGCCCAC,0.0905
16,GACGCATC,0.077
17,GCGAAGCA,0.0713
18,ACTCGATC,0.0786
19,AGAACATA,0.0821
20,AACCGAGG,0.0687
21,AACCAAAT,0.0734
22,CACGTAGG,0.0797
23,ATCGCAAT,0.0728
24,AATGTAGA,0.0767
25,AGCACAGA,0.0742

row,Sequence,binding signal (normalized occupancy)
1,GTGCGAAA,0.0824
2,TAAAATGA,0.0795
3,ACCGCCCT,0.0752
4,AGCCTGAT,0.0779
5,ATAGCTAT,0.0702
6,CAAGGAGG,0.0717
7,CACTCTCG,0.0812
8,CGATCAAA,0.0744
9,AGGGAGGG,0.0739
10,ATATGCTC,0.0928
11,CAAATACG,0.0758
12,ACAACCGG,0.0717
13,AAGCTCGC,0.067
14,GCAAACAC,0.0816
15,GCTGCAGC,0.072
16,CTTGTTAC,0.0797
17,ACCCTTTA,0.0786
18,ACCTGGGG,0.0778
19,CCCGGACA,0.0712
